The text below walks through data of the supplement of paper PMC10126150.

Values marked as one replicate rest on one cluster of the flow cell; about a third of the high ones do not repeat.

The data set deals with ATP. Briefly: switch fluorescence ratio, 500 uM ATP over buffer (Cy3 cluster intensity, sum of 5 cycles each) (fold (ratio)); higher = stronger signal-on switching upon ATP binding; sequences stand for … in TCGTCGGCAGCGTCAGATGTGTATAAGAGACAGTTTTTTTTTTTTTTTTTTTTTTTTT…TC. Conditions: aptamer strand: ATP DNA aptamer (quencher-CACCTGGGGGAGTATTGCGGAGGAAGG + anchor), 100 nM annealed; ATP concentration: 500 uM; one replicate. The method in brief:
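The quencher-labelled ATP aptamer, at 100 nM, was annealed to Cy3-labelled switching-strand clusters on a modified Illumina MiSeq flow-cell. The clusters were imaged in selection buffer, then after 15 min with 500 uM ATP at 22 °C, and this buffer/ATP cycle ran five times with NaOH stripping and re-annealing between runs. Per-cluster fluorescence ratios, summed target-cycle over summed buffer-cycle Cy3 intensity, were averaged per switch-domain sequence. Clusters outside 100-1000 RFU were excluded.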
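Further: ATP exposure 15 min at 22 °C before imaging.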

On to ACCAGATAGT, for which the switch fluorescence ratio was determined as 1.03.

As for ACGTTTATAC, the switch fluorescence ratio came out at 3.37.

In the case of GCTTTGCCAT, the switch fluorescence ratio came out at 1.01.

As to TTTGAATAAA, the switch fluorescence ratio is 1.

On to GGTACTAGTA, for which the switch fluorescence ratio was determined as 0.957.

Regarding TCTAATTGAT, the switch fluorescence ratio is 0.958.

With GTTAGTCCCC, the switch fluorescence ratio turned out to be 1.08.

With GAAGGGTTGT, the switch fluorescence ratio was 1.03.

Turning to CGGGGAATCT, the switch fluorescence ratio was found to be 1.05.

For GTATTCTCAG, the switch fluorescence ratio worked out at 0.972.

In the case of TGTGTCCAGA, the switch fluorescence ratio is 0.988.

Turning to TGCCTGGCGT, the switch fluorescence ratio is 1.01.

Regarding CTGAGGCTAG, the switch fluorescence ratio is 1.15.

For CCATGAATCA, the switch fluorescence ratio is 1.03.

As to TAGTATGCGC, the switch fluorescence ratio was found to be 0.952.

With ACAAAGTTTC, the switch fluorescence ratio is 0.997.

As for GAGGTAACTA, the switch fluorescence ratio is 0.996.

Turning to CCATAGCGT, the switch fluorescence ratio was found to be 2.18.

Take CCCCATGCTC: the switch fluorescence ratio came to 1.29.

Take CGTGATTCTG: the switch fluorescence ratio amounted to 1.02.

Turning to AGTCTTCTA, the switch fluorescence ratio came to 0.971.

As for GAACGGGCTA, the switch fluorescence ratio worked out at 0.988.

With AATGCAAGGG, the switch fluorescence ratio worked out at 1.04.

Turning to GAAACAGAGA, the switch fluorescence ratio turned out to be 1.01.

As to CAAGGGCCGT, the switch fluorescence ratio came out at 0.996.

For the sequence AGTAAGCTAC, the switch fluorescence ratio came out at 2.09.

GACAGTGGCA: the switch fluorescence ratio was determined as 0.97.

With TGGCCACCGC, the switch fluorescence ratio is 1.01.

On to CTTAACGCA, for which the switch fluorescence ratio was determined as 1.18.

On to AGACTCTAAG, for which the switch fluorescence ratio stood at 1.

Consider AGCGGGGGTC, for which the switch fluorescence ratio came out at 0.975.

As to GGCTAGGTTG, the switch fluorescence ratio amounted to 0.966.

As to CAAAGATCAC, the switch fluorescence ratio was found to be 1.06.

As to AAAGGGATAC, the switch fluorescence ratio came to 1.19.

For the sequence GTAATTGATG, the switch fluorescence ratio is 0.99.

Consider TTATAGGTAG, for which the switch fluorescence ratio was found to be 1.01.

Consider CCCTAATAG, for which the switch fluorescence ratio was determined as 1.21.

As to AGAAAGGATC, the switch fluorescence ratio stood at 1.01.

Consider TCGGTGTGG, for which the switch fluorescence ratio was 0.916.

Consider ATATATTTTC, for which the switch fluorescence ratio was 1.01.

Take GCCGACTGTA: the switch fluorescence ratio stood at 0.989.

Turning to ACTTTATAGC, the switch fluorescence ratio stood at 1.06.

Regarding CCGGCAATGG, the switch fluorescence ratio came to 1.29.

For CAGGAGATCA, the switch fluorescence ratio stood at 1.04.

TCGTAGAAG: the switch fluorescence ratio is 0.942.

With TTCGGATTAG, the switch fluorescence ratio is 0.986.

TGTATTAAAA: the switch fluorescence ratio was determined as 0.986.

In the case of CGCGTCAGGG, the switch fluorescence ratio was 1.09.

GGTAAAAAG: the switch fluorescence ratio was 0.955.

As to CCCTGACATG, the switch fluorescence ratio is 0.891.

As for TGGCGGCCAG, the switch fluorescence ratio turned out to be 1.03.

As to CGTCGCACGC, the switch fluorescence ratio is 1.8.

Turning to TAATTTTTCT, the switch fluorescence ratio came to 1.02.

As for TGTACTGGAG, the switch fluorescence ratio was 1.04.

In the case of CAGGCCCATG, the switch fluorescence ratio was 0.979.

Consider GGAGACTAGA, for which the switch fluorescence ratio came out at 1.04.

Consider GATTGGGCAG, for which the switch fluorescence ratio worked out at 0.929.

On to ACTTCACGCG, for which the switch fluorescence ratio was found to be 1.09.

For CGCGTCGGAT, the switch fluorescence ratio turned out to be 1.03.

Regarding TTCTTGAAGA, the switch fluorescence ratio was 1.02.

For the sequence TACTGGTGGG, the switch fluorescence ratio turned out to be 0.963.

For ATAGAAAGCG, the switch fluorescence ratio was 0.971.

Regarding GCCGTTCCCA, the switch fluorescence ratio came to 0.987.

Consider AATGTAAAGG, for which the switch fluorescence ratio was 0.999.

With TTGATTAGGG, the switch fluorescence ratio stood at 0.973.

In the case of TTTACCTGAT, the switch fluorescence ratio turned out to be 1.06.

On to TTAGAGTGAG, for which the switch fluorescence ratio stood at 1.03.

Consider CGGACTAGAA, for which the switch fluorescence ratio was determined as 1.02.

On to ACAACGTATG, for which the switch fluorescence ratio was determined as 0.964.

Take ATAACGATTA: the switch fluorescence ratio was 1.04.

Regarding AGGGCAATTT, the switch fluorescence ratio was 1.07.

For CCATTTCAAG, the switch fluorescence ratio turned out to be 0.982.

GGGTGCAATA: the switch fluorescence ratio worked out at 1.25.

Regarding CTTTATGGAG, the switch fluorescence ratio worked out at 1.02.

As for ATCAGGCTTA, the switch fluorescence ratio stood at 1.03.

As for AAAGGACTTA, the switch fluorescence ratio turned out to be 1.02.

Take TTCGGGTGCG: the switch fluorescence ratio is 1.07.

GAAGACAGAC: the switch fluorescence ratio came to 1.27.

Take AACTAGAGAG: the switch fluorescence ratio turned out to be 1.04.
